# Measured values: PubChem BioAssay AID588855 (National Center for Advancing Translational Sciences (NCATS), 2011)
# In all, about 410,000 compounds went through this assay and about 5,000 (1.2%) were called active. Inconclusive means that the source gave no clear call. Such entries were picked first, then a sample of the others. Calls come from the whole dose curve; as a rule, active = well fitted inhibition curve with a large enough effect; inconclusive = small, poorly fitted or top-dose-only effect; inactive = no such curve, though single readings can be large or run the other way. Potencies beside an inconclusive call are fits to weak or partial responses and may not hold up.
# Experiment: qHTS for Inhibitors of TGF-b; note: nearly all actives have a fitted effect of over 65% in size
# Settings: HepG2 CAGA-GFP TGF-b/SMAD3 reporter, GFP fluorescence, 18 h, TGF-beta stimulated, 500 pg/mL final; series mostly up to 46.1 µM
# Procedure, shortened: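 TGF-beta reporter screen: HEPG2 CAGA-GFP, 1% FBS, 500 pg/mL TGF-beta final, 18 h; per-cell GFP summed per well; curves fitted and categorized by class.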
# Potency is the fitted concentration of half-maximal effect; tags give direction and shape of the fitted curve.
row,Compound,Potency
1,O=C(NCCCN1CCOCC1)C(=O)NCC1OCCN1S(=O)(=O)c1ccc(Cl)cc1 (centres undefined),inactive
2,CN(CC1CCN(CCc2cccc(C(F)(F)F)c2)CC1)C(=O)c1ccc(F)cc1F,"inconclusive: 15.8 µM [inhibitor, partial curve, poor fit]"
3,COc1cccc(N2[C@@H](CC(C)=O)c3cc(C(F)(F)F)ccc3S2(=O)=O)c1,"inconclusive: 35.5 µM [inhibitor, single point]"
4,COc1ccc(C(=O)/C=C/c2ccc(OCc3ccccc3)cc2)cc1CSCC(=O)O,"inconclusive: 22.4 µM [inhibitor, partial curve, poor fit]"
5,O=C(Cn1ccc(=O)[nH]c1=O)Nc1ccc(O)c([N+](=O)[O-])c1,inactive
6,O=C(COc1ccccc1Cl)N1CCN(c2ccc([N+](=O)[O-])c(N3CCCCC3)c2)CC1,inactive
7,O=c1c2nnn(Cc3ccc(Cl)cc3)c2ncn1Cc1ccc(F)cc1,"inconclusive: 7.08 µM [inhibitor, partial curve, poor fit]"
8,CN1CCN(c2oc(-c3ccccc3Cl)nc2S(=O)(=O)c2ccccc2)CC1,inactive
9,COc1ccc(OC)c(C2=NS(=O)(=O)N(C)C(C(=O)Nc3ccc(C(C)=O)cc3)=C2)c1,"inconclusive: 7.94 µM [inhibitor, partial curve]"
10,O=C(CSc1nncc(=O)[nH]1)Nc1cccc([N+](=O)[O-])c1,"inconclusive: 14.1 µM [inhibitor, partial curve, poor fit]"
11,COc1ccc(Nc2nc3ccccc3n2C)cc1,inactive
12,Cc1nc(N2CCCC2)ncc1C(=O)NCc1ccc(Cl)cc1,"inconclusive: 35.5 µM [inhibitor, single point]"
13,O=C(Cc1cccs1)NCCc1csc(-c2ccccc2)n1,inactive
14,COc1ccccc1N1CCN(S(=O)(=O)c2ccc(-c3ccno3)cc2OC)CC1,"inconclusive: 35.5 µM [inhibitor, single point]"
15,O=C1CSC(c2ccccc2F)N1CCN1CCCCC1 (centres undefined),inactive
16,Cc1ccc(S(=O)(=O)N2CCN(C(=O)CN3C(=O)CNC3=O)CC2)cc1,inactive
17,O=C(Nc1ccc(N2CCCC2)cc1)c1cccc(Cl)c1,inactive
18,CC(C)C[C@@H](C(=O)NC1CCN(Cc2ccccc2)CC1)N1C(=O)N2CCc3c([nH]c4ccccc34)[C@@]2(C)C1=O,"inconclusive: 17.8 µM [inhibitor, single point]"
19,Cc1ccc(C2C(=O)N(C3CCCCCC3)CC(=O)N2C(C)C)cc1 (centres undefined),"inconclusive: 35.5 µM [inhibitor, partial curve, poor fit]"
20,Cc1cccc2c3c([nH]c12)C(=O)CC(C)(C)S3,"inconclusive: 12.6 µM [inhibitor, partial curve, poor fit]"
21,Cc1nc(NC(=O)CCl)sc1C(=O)N(C)C,inactive
22,O=C1/C(=C/c2coc3ccc(O)cc3c2=O)SC(=S)N1c1ccccc1,"inconclusive: 3.98 µM [inhibitor, single point]"
23,O=C(CC(=O)c1ccccc1)Nc1cccc([N+](=O)[O-])c1,"inconclusive: 25.1 µM [inhibitor, single point]"

row,Compound,Potency
1,Nc1ccc(N2CCOCC2)c2nonc12,"inconclusive: 35.5 µM [inhibitor, single point]"
2,COc1ccc(Nc2nc3cc(-c4ccccc4C)sc3c(=O)n2C)cc1OC,"inconclusive: 14.1 µM [inhibitor, single point]"
3,CCN(CC(=O)NCc1cccs1)C(=O)/C=C/c1cc(OC)c(OC)c(OC)c1,"inconclusive: 0.398 µM [inhibitor, full curve, poor fit]"
4,COc1ccc(CCNC(=O)c2cc(-c3cc(C)cc(C)c3O)n[nH]2)cc1OC,"inconclusive: 25.1 µM [inhibitor, single point]"
5,Cc1ccc(C)c(NC(=O)CCCn2c(C)c3cnn(-c4ccccc4)c(=O)c3c2C)c1,"inconclusive: 20 µM [inhibitor, partial curve, poor fit]"
6,Cc1sc(N)nc1-c1ccccc1,inactive
7,CNC(=O)C1CCC(Cn2c(=O)c3sccc3n(CC(=O)NCc3ccc(C)cc3)c2=O)CC1 (centres undefined),"inconclusive: 2.24 µM [inhibitor, partial curve, poor fit]"
8,Cc1cc(C)c2c(n1)SCC(=O)N2CC(=O)Nc1ccccc1C,"inconclusive: 3.98 µM [inhibitor, single point]"
9,O=C1C2CCCN2C(=O)N1CCN1CCN(c2cccc(C(F)(F)F)c2)CC1 (centres undefined),inactive
10,CCN1C(=O)[C@H]2[C@@H](c3ccc(-c4ccc(Cl)c(Cl)c4)c(OC)c3)N3CCCC[C@@]3(C(=O)OC)[C@H]2C1=O,"inconclusive: 25.1 µM [inhibitor, single point]"
11,COc1ccc(NC(=O)Cn2c(=O)oc3cc(Cl)ccc32)c(OC)c1,inactive
12,CCOc1cc(C2Nc3ccccc3C(=O)N2c2ccccc2OC)ccc1O (centres undefined),"inconclusive: 35.5 µM [inhibitor, single point]"
13,C=C1C(=O)C=C[C@]2(C)C[C@@H]3OC(=O)[C@](C)(O)[C@H]3C[C@@H]12,"inconclusive: 15.8 µM [inhibitor, single point]"
14,COc1ccc(CNC(=O)CN(Cc2ccc(F)cc2)C(=O)CCC(=O)Nc2nccs2)cc1,inactive
15,Cc1cc(C)c2c(N)c(C(=O)Nc3cccc(C)c3C)sc2n1,inactive
16,COc1ccc(C(=O)NCc2nnc(SCC(=O)Nc3nc4ccccc4s3)o2)cc1OC,"inconclusive: 3.98 µM [inhibitor, single point]"
17,CCC(C)Sc1ccc([C@H]2N[C@@](C)(C(=O)OC)[C@H]3C(=O)N(CC)C(=O)[C@@H]23)cc1 (some centres undefined),"inconclusive: 3.98 µM [inhibitor, single point]"
18,CC[n+]1c(/C=C/C=C/N(C(C)=O)c2ccccc2)sc2cc(OC)ccc21,inactive
19,Cc1ccc(NC(=O)c2cc(S(=O)(=O)NC3CCCCCC3)ccc2F)cc1F,"inconclusive: 10 µM [inhibitor, partial curve, poor fit]"
20,COC(=O)/C=C/c1ccc2c(c1)S(=O)(=O)N(C1CCCC1)[C@H]2CC(=O)OC,"inconclusive: 17.8 µM [inhibitor, single point]"
21,FC(F)Sc1ccc(N=C2NN=C(c3ccc4c(c3)OCCO4)CS2)cc1,"inconclusive: 12.6 µM [inhibitor, single point]"
22,CCc1ccc(C(=O)COC(=O)c2cc([N+](=O)[O-])ccc2N2CCOCC2)cc1,"inconclusive: 20 µM [inhibitor, partial curve, poor fit]"
23,CCC(C)NC(=O)CSc1n[nH]c(-c2cc(Cl)ccc2OC)n1 (centres undefined),"inconclusive: 35.5 µM [inhibitor, single point]"

row,Compound,Potency
1,CN(C)CCCNC(=O)c1ccc(=O)[nH]n1,inactive
2,Cc1cccc(OCc2nc(C#N)c(NCc3ccc4c(c3)OCO4)o2)c1,"inconclusive: 3.16 µM [inhibitor, full curve, poor fit]"
3,CCCCN(C=O)c1c(CC)nc2c(OCc3ccc(Cl)cc3Cl)cccn12,"inconclusive: 20 µM [inhibitor, single point]"
4,COc1ccc(C(=O)/C=C2\NCCc3cc(OC)c(OC)cc32)cc1OC,inactive
5,COc1ccc(N2CCN(C(=O)CSc3nnc(C4CC4)n3C3CC3)CC2)cc1,inactive
6,CCOc1ccc(C(=O)N(CC(=O)Nc2cccc(C)c2C)CC2CCCO2)cc1OC (centres undefined),inactive
7,CCN(CC)c1ccc(/C=C2\SC(=O)N(C(C)C)C2=O)o1,inactive
8,CC[C@@]1(c2ccccc2C)C(=O)N(C(=O)OC)N1C(=O)OC,"inconclusive: 25.1 µM [inhibitor, single point]"
9,CCC(C)c1ccc(NC(=S)Nc2ccc(OC)cc2C)cc1 (centres undefined),"inconclusive: 25.1 µM [inhibitor, single point]"
10,O=c1c2c3c(sc2nc2n1N=C(c1cccs1)CS2)CCCC3,inactive
11,CCOC(=O)C1CCCN(C(=O)Cn2c(=O)cc(C)c3c(C)nn(C)c32)C1 (centres undefined),"inconclusive: 31.6 µM [inhibitor, single point]"
12,COc1cc(OC)nc(Nc2nc(C(N)CCc3ccccc3)cs2)n1 (centres undefined),"inconclusive: 14.1 µM [inhibitor, partial curve, poor fit]"
13,COc1ccc(C(=O)c2cnc3ccc(C)cc3c2S(=O)(=O)c2ccccc2)cc1,inactive
14,Cc1ccc(C(=O)N(C)CC(=O)Nc2ccc(Cl)c(C(F)(F)F)c2)cc1S(=O)(=O)N1CCCCC1,"inconclusive: 22.4 µM [inhibitor, single point]"
15,O=C(CN1C(=O)C2(SCC(=O)N2c2ccccc2)c2ccccc21)Nc1ccccc1C(F)(F)F (centres undefined),inactive
16,CCOc1cc(/C=N/Nc2nnc(C)n2N)ccc1O,active: 11.2 µM
17,CCc1ccc2occ(CC(=O)Nc3nnc(C)s3)c2c1,inactive
18,COc1ccc(CCNC(=O)c2ccc(Cl)c(S(=O)(=O)N3CCCC3)c2)cc1,"inconclusive: 15.8 µM [inhibitor, partial curve, poor fit]"
19,CN1CCN(c2oc(COc3ccc(-c4ccccc4)cc3)nc2C#N)CC1,inactive
20,O=C(NCCCN1CCOCC1)c1ccc(Br)cc1,inactive
21,CCC(C)Nc1nc(-c2cccc(OC)c2O)nc2ccccc12 (centres undefined),"inconclusive: 35.5 µM [inhibitor, single point]"
22,Fc1cccc(Cl)c1CNC(c1ccccc1)c1ccccc1,"inconclusive: 3.16 µM [inhibitor, full curve]"
23,O=C(CCn1ccc2cc(S(=O)(=O)N3CCCC3)ccc21)NCc1ccccc1,"inconclusive: 35.5 µM [inhibitor, single point]"
